# PubChem BioAssay (NCATS)
# Where “and” joins values, the source holds several entries; their conditions need not be identical. Equal values may be shown once. The inconclusive results got no clear call from the source; some entries with a clear call stand among them for comparison. A potency beside an inconclusive call is a rough fit, not a confirmed value. Some structures have more than one record in an assay (separate samples or runs), and their calls can disagree. Calls of active or inactive are those of the source. Calls follow the shape of the dose curve; as a rule, active = well fitted curve in the direction sought with a large enough effect; inconclusive = small, poorly fitted or top-dose-only effect, or another doubt; inactive = no such curve, though single readings can be large; an effect the other way counts as inactive or inconclusive.
# Columns and labels:
# [1] = qHTS of pediatric cancer cell lines to identify multiple opportunities for drug repurposing: Primary screen for A673 cells (AID 1347092); conditions: A673 Ewing sarcoma viability, CellTiter-Glo ATP luminescence, 48 h; activity change, negative = cytotoxic: at 46 µM (top of the series); also: nearly all actives have a fitted effect of over 45% in size
# How it was run: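 A673 cells (500-1,000 cells/well in growth media) were pre-incubated 5 h at 37 degrees C, then exposed to compounds for 48 h. Viability was read as CellTiter-Glo luminescence; concentration-response curves came directly from the primary screen.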
# [2] = system: CAOV3; assay: Primary qHTS to identify gynecologic anti-cancer compounds using libraries of approved drugs and bioactive compounds (AID 1345084); conditions: Gynecologic cancer cell panel viability, ATPlite luminescence, 48 h; series mostly up to 57.5 µM; also: nearly all actives have a fitted effect of over 55% in size
# How it was run: (§1)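 Cytotoxicity screen measuring ATP content by luciferase luminescence. Each compound is applied at five concentrations for 48 h at 37 C with 5% CO2.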
# [3] = system: HeLa; assay: as above; conditions: Gynecologic cancer cell panel viability, ATPlite luminescence, 48 h; series mostly up to 57.5 µM
# How it was run: as §1
# [4] = system: Hek293T; assay: as above; conditions: Gynecologic cancer cell panel viability, ATPlite luminescence, 48 h, control line for the selectivity index; series mostly up to 57.5 µM
# How it was run: as §1
# [5] = system: Tov-21-G; assay: as above; conditions: Gynecologic cancer cell panel viability, ATPlite luminescence, 48 h; series mostly up to 57.5 µM
# How it was run: as §1
# [6] = Primary qHTS for inhibitors of nuclear receptor binding SET domain protein 2 (NSD2) in an RCH-ACV wild type WT cells (2C) (AID 1645877); conditions: activity change, negative = cell killing: at 44.9 µM (top of the series); also: nearly all actives have a fitted effect of over 70% in size
# [7] = Quantitative High-Throughput drug screen in 47 multiple myeloma cell lines against the NCATS MIPE library collection: INA6_PLB cell viability assay (AID 1918965; also: nearly all actives have a fitted effect of over 55% in size)
# How it was run: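 Myeloma cells (500 per well) were exposed to MIPE 4.0 compounds by pin transfer and incubated 48 hours at 37C, 5% CO2. Viability was read as ATP by CellTiter-Glo luminescence, normalised to DMSO (100%) and media-only (0%) wells.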
# [8] = Quantitative High-Throughput drug screen in 47 multiple myeloma cell lines against the NCATS MIPE library collection: MM1R_ATCC cell viability assay (AID 1918981); also: nearly all actives have a fitted effect of over 35% in size
# How it was run: (§2)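 Myeloma cells (500/well) treated with MIPE 4.0 compounds for 48 h at 37 °C, 5% CO2. Viability read as ATP via CellTiter-Glo luminescence after 5 min at RT; DMSO-only wells = 100%, media-only = 0% viability.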
# [9] = Quantitative High-Throughput drug screen in 47 multiple myeloma cell lines against the NCATS MIPE library collection: OPM1_PLB cell viability assay (AID 1918989); also: nearly all actives have a fitted effect of over 40% in size
# How it was run: as §2
# [10] = Quantitative High-Throughput drug screen in 47 multiple myeloma cell lines against the NCATS MIPE library collection: XG1_PLB cell viability assay (AID 1919866); also: nearly all actives have a fitted effect of over 35% in size
# How it was run: as §2
# [11] = Quantitative High-Throughput drug screen in 47 multiple myeloma cell lines against the NCATS MIPE library collection: VP6_DJ cell viability assay (AID 1919867); conditions: ATP luminescence, 48 h; series mostly up to 45.8 µM; also: nearly all actives have a fitted effect of over 40% in size
# How it was run: as §2
# [12] = Quantitative High-Throughput drug screen in 47 multiple myeloma cell lines against the NCATS MIPE library collection: JJN3_DSMZ cell viability assay (AID 1918966; also: nearly all actives have a fitted effect of over 50% in size)
# How it was run: (§3)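 CellTiter-Glo luminescence (ATP) after 48 h compound exposure, 37C/5% CO2; 500 cells/well; MIPE 4.0 approved/investigational drugs pinned in; DMSO = 100%, media only = 0% viability.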
# [13] = Quantitative High-Throughput drug screen in 47 multiple myeloma cell lines against the NCATS MIPE library collection: JIM3_ECACC cell viability assay (AID 1918963; also: nearly all actives have a fitted effect of over 35% in size)
# How it was run: as §3
# [14] = Quantitative High-Throughput drug screen in 47 multiple myeloma cell lines against the NCATS MIPE library collection: OCIMY5_PLB cell viability assay (AID 1918988); also: nearly all actives have a fitted effect of over 65% in size
# How it was run: as §2
# [15] = Quantitative High-Throughput drug screen in 47 multiple myeloma cell lines against the NCATS MIPE library collection: PE2_PLB cell viability assay (AID 1919869); conditions: PE2_PLB myeloma cells viability, ATP luminescence, 48 h; series mostly up to 45.8 µM; also: nearly all actives have a fitted effect of over 35% in size
# How it was run: as §2
# [16] = qHTS of pediatric cancer cell lines to identify multiple opportunities for drug repurposing: Confirmatory screen for SJ-GBM2 cells (AID 1347116); also: nearly all actives have a fitted effect of over 60% in size
# How it was run: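 Viability measured as metabolically active cells via CellTiter-Glo luminescence following 48 hours of compound exposure, 11-point dilutions in confirmatory testing. 500-1,000 cells/well plated 5 hours before dosing; controls were DMSO and 2.3 µM bortezomib.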
# [17] = qHTS of pediatric cancer cell lines to identify multiple opportunities for drug repurposing: Confirmatory screen for Saos-2 cells (AID 1347127); also: nearly all actives have a fitted effect of over 60% in size
# How it was run: (§4)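 Cells (500-1,000/well) in growth media were settled 5 h at 37 degrees C, then given compounds for 48 h. Viability was read as CellTiter-Glo luminescence. Primary runs used MIPE at 11 points (0.78 nM-46 µM) and NPC at 8 points (0.59 nM-46 µM); follow-ups used 11 points.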
# [18] = qHTS of pediatric cancer cell lines to identify multiple opportunities for drug repurposing: Confirmatory screen for NB1643 cells (AID 1347109); also: nearly all actives have a fitted effect of over 45% in size
# How it was run: as §4
# [19] = qHTS of pediatric cancer cell lines to identify multiple opportunities for drug repurposing: Confirmatory screen for RD cells (AID 1347124); conditions: RD rhabdomyosarcoma cell viability; activity change, negative = cytotoxic: at 45.9 µM (top of the series) unless noted;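 also: cells exposed to compound for 48 h before viability readout; nearly all actives have a fitted effect of over 65% in size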
# How it was run: as §4
# [20] = qHTS of pediatric cancer cell lines to identify multiple opportunities for drug repurposing: Confirmatory screen for OHS-50 cells (AID 1347128);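 also: compound exposure lasted 48 h at 37 degrees C; nearly all actives have a fitted effect of over 55% in size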
# How it was run: as §4
# Potency is read from the fitted curve at half-maximal effect; tags tell the direction and shape of the fitted curve.
compound,measurement,setting,value
CC1=C(/C=C/C(C)=C/C=C/C(C)=C/C(=O)Nc2ccc(O)cc2)C(C)(C)CCC1,Potency,[1],active: 6.68 µM
same,Potency,[2],"inconclusive: 28.2 µM [cytotoxic, single point]"
same,Potency,[3],"inconclusive: 31.6 µM [cytotoxic, partial curve, poor fit]"
same,Potency,[4],active: 20 µM
same,Potency,[5],active: 20 µM
C[C@H](NC(=O)Cc1cc(F)cc(F)c1)C(=O)N[C@@H]1C(=O)N(C)c2ccccc2-c2ccccc21,Potency,[6],"inconclusive: 16.3 µM [inhibitor, partial curve, poor fit]"
same,Potency,[7],"inconclusive: 5.26 µM [cytotoxic, partial curve, poor fit]"
same,Potency,[8],"inconclusive: 33.2 µM [cytotoxic, single point]"
same,Potency,[9],"inconclusive: 5.26 µM [cytotoxic, partial curve, poor fit]"
same,Potency,[10],"inconclusive: 4.18 µM [cytotoxic, partial curve, poor fit]"
same,Potency,[11],inactive
same,Potency,[3],inactive
CN(NC(=O)CC(=O)NN(C)C(=S)c1ccccc1)C(=S)c1ccccc1,Potency,[2],"inconclusive: 1 µM [cytotoxic, partial curve, poor fit]"
O=C(c1ccc(Nc2nccc(-c3cc4ccccc4s3)n2)cc1)N1CCC(N2CCCC2)CC1,Potency,[12],active: 16.6 µM
same,Potency,[8],active: 16.6 µM
same,Potency,[9],active: 5.26 µM
same,Potency,[2],"inconclusive: 39.8 µM [cytotoxic, single point]"
CCC[C@H](NC(=O)C(C#N)=Cc1cccc(Br)n1)c1ccccc1,Potency,[13],active: 1.48 µM
NC(=O)c1ccc(-c2nc(-c3ccc4c(c3)OCO4)c(-c3ccccn3)[nH]2)cc1,Potency,[6],"inconclusive: 32.6 µM [inhibitor, partial curve, poor fit]"
same,Potency,[7],"inconclusive: 0.0235 µM [rising, full curve, poor fit]"
same,Potency,[14],active: 9.35 µM
same,Potency,[9],"inconclusive: 16.6 µM [cytotoxic, partial curve, poor fit]"
same,Potency,[10],"inconclusive: 13.2 µM [cytotoxic, partial curve, poor fit]"
same,Potency,[11],"inconclusive: 14.8 µM [cytotoxic, partial curve, poor fit]"
same,Potency,[15],"inconclusive: 3.32 µM [cytotoxic, full curve, poor fit]"
Cc1c(CCOc2ccc(C(=O)O)cc2)c2cc(Cl)ccc2n1C(c1ccccc1)c1ccccc1,Potency,[7],inactive
same,Potency,[14],"inconclusive: 16.6 µM [cytotoxic, partial curve, poor fit]"
same,Potency,[9],"inconclusive: 37.2 µM [cytotoxic, single point]"
same,Potency,[10],inactive
same,Potency,[11],"inconclusive: 0.332 µM [cytotoxic, full curve, poor fit]"
COc1cccc2cc(-c3nc(C4CCC(C(=O)O)CC4)n4ncnc(N)c34)[nH]c12 (configuration not stated),Potency,[1],"inconclusive: 0.372 µM [cytotoxic, full curve]"
same,Potency,[16],"inconclusive: 14.7 µM [cytotoxic, partial curve, poor fit]"
same,Potency,[17],"inconclusive: 5.85 µM [cytotoxic, full curve, poor fit]"
same,Potency,[13],"inconclusive: 0.833 µM [cytotoxic, full curve]"
same,Potency,[14],active: 1.32 µM
same,Potency,[9],active: 2.35 µM
same,Potency,[2],"inconclusive: 10 µM [cytotoxic, partial curve, poor fit]"
same,Potency,[3],inactive
same,Potency,[4],"inconclusive: 4.47 µM [cytotoxic, single point]"
same,Potency,[5],active: 3.55 µM
Oc1cn2c(n1)Nc1ccc(Cl)c(Cl)c1C2,Potency,[1],inactive
same,Potency,[3],inconclusive: 0.0003 µM
same,Potency,[4],"inconclusive: 2.51 µM [rising, full curve, poor fit]"
S=C(NCc1ccc2c(c1)OCO2)N1CCN(c2ncnc3c2oc2ccccc23)CC1,Potency,[12],"inconclusive: 17.1 µM [cytotoxic, partial curve, poor fit]"
same,Potency,[8],"inconclusive: 15.2 µM [cytotoxic, partial curve]"
same,Potency,[14],active: 9.59 µM
same,Potency,[15],active: 6.79 µM
same,Potency,[2],"inconclusive: 7.94 µM [cytotoxic, full curve, poor fit]"
same,Potency,[4],"inconclusive: 7.08 µM [cytotoxic, partial curve]"
COc1cc2ncn(-c3cc(OCc4ccccc4C(F)(F)F)c(C(N)=O)s3)c2cc1OC,Potency,[6],active: 794 nM and active: 1.18 µM
same,Potency,[12],active: 16.6 µM
same,Potency,[10],active: 0.209 µM
same,Potency,[11],active: 18.7 µM
CS(=O)(=O)c1cccc(CNc2nc(Nc3ccc4c(c3)CCC(=O)N4)ncc2C(F)(F)F)c1,Potency,[1],active: 14.8 µM
same,Potency,[6],active: 3.32 µM
same,Potency,[7],active: 11.8 µM
same,Potency,[12],active: 16.6 µM
same,Potency,[9],active: 18.7 µM
same,Potency,[3],"inconclusive: 22.4 µM [cytotoxic, partial curve, poor fit]"
same,Potency,[5],"inconclusive: 20 µM [cytotoxic, partial curve, poor fit]"
NC1(c2ccc(-c3nc4ccn5c(=O)[nH]nc5c4cc3-c3ccccc3)cc2)CCC1,Potency,[1],active: 14.8 µM and active: 21.1 µM
same,Potency,[14],"inconclusive: 7.43 µM [cytotoxic, partial curve, poor fit]"
same,Potency,[9],active: 3.32 µM
same,Potency,[15],"inconclusive: 1.48 µM [cytotoxic, partial curve]"
same,Potency,[2],"inconclusive: 39.8 µM [cytotoxic, single point]"
same,Potency,[4],"inconclusive: 3.98 µM [cytotoxic, partial curve] and active: 3.55 µM"
same,Potency,[5],"inconclusive: 6.31 µM [cytotoxic, full curve] and inconclusive: 22.4 µM [cytotoxic, partial curve, poor fit]"
O=C(C=Cc1cccc(S(=O)(=O)Nc2ccccc2)c1)NO,Potency,[1],active: 4.29 µM
same,Potency,[18],active: 1.35 µM
same,Potency,[16],active: 2.14 µM
same,Potency,[12],active: 3.4 µM
C[C@@]12O[C@@H](C[C@]1(O)CO)n1c3ccccc3c3c4c(c5c6ccccc6n2c5c31)CNC4=O,Potency,[19],"inconclusive: 23.3 µM [cytotoxic, partial curve, poor fit]"
same,Potency,[13],active: 0.526 µM
same,Potency,[7],active: 0.0743 µM
same,Potency,[12],active: 0.418 µM
COc1ccc(C2=N[C@H](c3ccc(Cl)cc3)[C@H](c3ccc(Cl)cc3)N2C(=O)N2CCNC(=O)C2)c(OC(C)C)c1,Potency,[7],"inconclusive: 33.2 µM [cytotoxic, single point]"
same,Potency,[8],active: 2.35 µM
same,Potency,[9],"inconclusive: 37.2 µM [cytotoxic, single point]"
same,Potency,[10],"inconclusive: 18.7 µM [cytotoxic, single point]"
same,Potency,[11],"inconclusive: 5.26 µM [cytotoxic, partial curve, poor fit]"
same,Potency,[15],"inconclusive: 20.9 µM [cytotoxic, single point]"
CC(NCc1ccc2c(c1)nc(NC(=O)c1ccc(-c3cn[nH]c3)s1)n2CC(C)(C)O)C(C)(C)C (configuration not stated),Potency,[18],active: 0.293 µM
same,Potency,[17],active: 0.928 µM
O=C1NC2CCCCN2C12CCN(CCCN1c3ccccc3CCc3ccc(Cl)cc31)CC2 (configuration not stated),Potency,[1],"inconclusive: 33.5 µM [cytotoxic, single point]"
same,Potency,[2],"inconclusive: 35.5 µM [cytotoxic, single point]"
same,Potency,[4],"inconclusive: 35.5 µM [cytotoxic, single point]"
O=C(O)c1cc(-c2ccccc2)nc2ccccc12,Potency,[6],"inconclusive: 69.3 µM [inhibitor, partial curve, poor fit]"
same,Potency,[2],"inconclusive: 39.8 µM [cytotoxic, single point] and inactive"
same,Potency,[3],active: 50.1 µM
same,Potency,[4],"inconclusive: 31.6 µM [cytotoxic, single point] and inconclusive: 39.8 µM [cytotoxic, single point]"
same,Potency,[5],"inconclusive: 31.6 µM [cytotoxic, single point] and inconclusive: 28.2 µM [cytotoxic, single point]"
CC(C)C[C@H](NC(=O)CNC(=O)c1cc(Cl)ccc1Cl)B(O)O,Potency,[18],"inconclusive: 0.293 µM [cytotoxic, full curve, poor fit]"
same,Potency,[16],active: 0.185 µM
same,Potency,[19],active: 0.465 µM
same,Potency,[17],"inconclusive: 0.414 µM [cytotoxic, full curve, poor fit]"
same,Potency,[20],"inconclusive: 0.585 µM [cytotoxic, full curve, poor fit]"
same,Potency,[13],active: 0.105 µM
same,Potency,[15],active: 0.0418 µM
CC(C)(C)c1cnc(CSc2cnc(NC(=O)C3CCNCC3)s2)o1,Potency,[18],active: 0.165 µM
same,Potency,[16],active: 0.414 µM
same,Potency,[19],active: 0.585 µM
same,Potency,[17],active: 0.465 µM
same,Potency,[20],active: 0.329 µM
same,Potency,[13],active: 0.235 µM
same,Potency,[10],active: 0.296 µM
same,Potency,[11],active: 0.148 µM
CN(C)CC=CC(=O)Nc1cc2c(Nc3ccc(F)c(Cl)c3)ncnc2cc1O[C@H]1CCOC1,Potency,[10],active: 4.18 µM
